In PubChem BioAssay AID504332 (National Center for Advancing Translational Sciences (NCATS), 2011):
Where “and” joins values, the source holds several entries; their conditions need not be identical. Equal values may be shown once. The whole screen tested about 350,000 compounds, of which about 31,000 (8.9%) were called active. Inconclusive results, whose numbers are uncertain, are shown with a selection of clear calls. The call rests on the fitted dose curve; in most records, active means well fitted inhibition curve with a large enough effect; inconclusive means small, poorly fitted or top-dose-only effect; inactive means no such curve, though single readings can be large or run the other way. Potencies beside an inconclusive call are fits to weak or partial responses and may not hold up.

What follows are compounds tested against Histone-lysine N-methyltransferase EHMT2 (Homo sapiens) (UniProt Q96KQ7) (assay: qHTS Assay for Inhibitors of Histone Lysine Methyltransferase G9a). Details: G9a H3K9 monomethylation, AlphaScreen, 2 h; activity, negative = inhibition: at 59 µM (top of the series) unless noted.
How it was run: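 Compounds were preincubated with 20 nM G9a for 15 min, after which biotinylated H3K9 peptide (500 nM) and SAM (20 uM) started a 2 h room-temperature reaction. Monomethylated product was quantified by antibody-based AlphaScreen chemiluminescence.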
Further: nearly all actives have a fitted effect of over 75% in size.
On the % scale 0 is the no-effect control and ±100 the full control effect; potency means the concentration at half of the fitted maximal effect; tags describe the fitted curve by direction and shape.

UniProt Q96KQ7, sequence (Q96KQ7 whole entry, looked up): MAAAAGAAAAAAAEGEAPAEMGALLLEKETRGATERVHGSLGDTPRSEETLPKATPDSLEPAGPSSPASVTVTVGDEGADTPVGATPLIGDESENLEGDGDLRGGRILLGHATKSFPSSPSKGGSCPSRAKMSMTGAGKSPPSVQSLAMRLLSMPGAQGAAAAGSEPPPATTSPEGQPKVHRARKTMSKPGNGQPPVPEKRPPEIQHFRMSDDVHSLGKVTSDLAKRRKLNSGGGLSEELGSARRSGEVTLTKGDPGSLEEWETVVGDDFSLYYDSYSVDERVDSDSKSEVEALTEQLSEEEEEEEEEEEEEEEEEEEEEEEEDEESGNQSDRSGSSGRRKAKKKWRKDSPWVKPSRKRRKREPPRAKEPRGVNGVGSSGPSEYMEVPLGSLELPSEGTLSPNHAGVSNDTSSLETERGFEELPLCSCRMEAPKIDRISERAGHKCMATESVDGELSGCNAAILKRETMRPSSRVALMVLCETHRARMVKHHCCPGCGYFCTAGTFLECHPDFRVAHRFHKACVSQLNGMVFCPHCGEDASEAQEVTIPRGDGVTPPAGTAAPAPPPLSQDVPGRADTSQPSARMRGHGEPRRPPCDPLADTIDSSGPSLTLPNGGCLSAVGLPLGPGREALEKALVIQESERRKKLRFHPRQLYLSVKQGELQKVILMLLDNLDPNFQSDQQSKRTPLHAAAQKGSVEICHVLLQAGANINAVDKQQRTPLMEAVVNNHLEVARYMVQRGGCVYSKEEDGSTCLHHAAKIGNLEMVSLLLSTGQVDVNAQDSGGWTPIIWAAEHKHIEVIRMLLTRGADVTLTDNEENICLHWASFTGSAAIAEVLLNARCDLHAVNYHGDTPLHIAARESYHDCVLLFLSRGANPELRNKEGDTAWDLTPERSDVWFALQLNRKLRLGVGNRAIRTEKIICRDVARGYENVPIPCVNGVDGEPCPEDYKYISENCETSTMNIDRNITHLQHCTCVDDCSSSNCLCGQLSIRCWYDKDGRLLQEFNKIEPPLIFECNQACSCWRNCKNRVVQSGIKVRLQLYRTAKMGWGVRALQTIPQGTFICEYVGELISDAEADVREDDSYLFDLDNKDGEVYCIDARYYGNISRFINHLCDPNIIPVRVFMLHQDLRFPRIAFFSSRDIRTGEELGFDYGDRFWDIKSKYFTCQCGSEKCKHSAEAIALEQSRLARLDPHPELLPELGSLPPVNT

Row | SMILES | Potency | activity, negative = inhibition
1 | N#CC1=C(S)N(c2ccccc2)C(c2ccco2)NC1=O (configuration not stated) | active: 28.2 µM | –
2 | COc1ccc(S(=O)(=O)N2CCOCC2)cc1NC(=O)CSc1nnc2c(n1)[nH]c1ccccc12 | – | inconclusive: -71.9% [inhibitor]
3 | COc1ccc(C2=NC(C)(C)N(CC(=O)Nc3ccc(F)c(F)c3)C2=O)cc1 | – | inactive: -1.09%
4 | O=C(N/C(=C\c1ccco1)C(=O)N1CCCC1)c1cccs1 | inconclusive: 35.5 µM [inhibitor, single point] | –
5 | CCOc1ccc(C2/C(=C(\O)c3ccc4c(c3)OCCO4)C(=O)C(=O)N2CCN2CCOCC2)cc1OCC (configuration not stated) | inconclusive: 50.1 µM [inhibitor, partial curve, poor fit] | –
6 | COc1ccc(C(=O)Nc2ccnn2C2CCN(Cc3ccncc3)CC2)cc1 | inconclusive: 79.4 µM [inhibitor, single point] | –
7 | Cc1nn2c(=O)cc(COC(=O)CNC(=O)c3ccc(F)cc3)nc2s1 | – | inactive: 1.25%
8 | CCN1C(=O)/C(=C/c2ccc(C)o2)N(C)C1=S | active: 8.91 µM | –
9 | CC(=O)c1ccc(NC(=O)Cn2c(=O)n(Cc3ccco3)c(=O)c3sc4ccccc4c32)cc1 | – | inactive: -25.1%
10 | COc1ccc(/C=C/C(=O)c2ccc(O)cc2)cc1 | – | inactive: 20.8%
11 | COc1ccc(-c2nsc(NC(=O)c3oc4cc(C)c(C)cc4c3C)n2)cc1 | – | inactive: -27.2%
12 | O=C1CSC(=Nc2cccc([N+](=O)[O-])c2)N1 | inconclusive: 70.8 µM [inhibitor, single point] | –
13 | O=C(c1ccc(F)cc1Cl)N1CCN(S(=O)(=O)c2cccs2)CC1 | – | inactive: 48.2% [at 102 µM]
14 | CCOc1ccc(NC(=O)/C(C=Nc2ccccc2)=C(\C)O)cc1 | active: 44.7 µM | –
15 | C/C(=N\NC(=O)c1cc(Br)ccc1O)c1ccccn1 | inconclusive: 79.4 µM [inhibitor, single point] | –
16 | COc1ccccc1/C=C/C=N/NC(=O)CN1CCN(S(=O)(=O)c2ccc(C)cc2)CC1 | – | inactive: 1.14% [at 102 µM]
17 | COC(=O)c1ccc(C(=O)N=c2sccn2C)cc1 | – | inactive: 19% [at 102 µM]
18 | O=S(=O)(Nc1cccc(S(=O)(=O)N2CCCC2)c1)c1cccc(Br)c1 | inconclusive: 1.58 µM [inhibitor, single point] | –
19 | CCOc1ccc(Nc2nc(N3CCCC3)nc(N3CCN(c4ccc(OC)cc4)CC3)n2)cc1 | inconclusive: 7.94 µM [inhibitor, full curve, poor fit] | –
20 | COc1ccc(C2C(C(=O)c3ccco3)=C(O)C(=O)N2c2nnc(C)s2)cc1OC (configuration not stated) | active: 50.1 µM | –
21 | COc1ccc(C2C(C#N)=C(SCC(=O)Nc3ccc(C)cc3)NC3=C2C(=O)CC(C)(C)C3)cc1 (configuration not stated) | inconclusive: 12.6 µM [inhibitor, partial curve, poor fit] | –
22 | Cc1ccc(-n2ncc(C(=O)NCCCN3CCCCC3)c2C2CCN(C(=O)OC(C)(C)C)CC2)cc1 | – | inactive: -4.88%
23 | CCN(CCn1cccn1)C(=O)CCc1nnc(-c2ccc3c(c2)OCO3)o1 | – | inactive: -8.94% [at 102 µM]
24 | CCOc1ccc(N/C=C/C(=O)c2ccc3ccccc3c2)c([N+](=O)[O-])c1 | – | inconclusive: -78.2% [inhibitor] [at 12.7 µM]

Row | SMILES | Potency | activity, negative = inhibition
25 | O=C(COC(=O)c1ccccc1NCCO)NCCC1=CCCCC1 | inconclusive: 79.4 µM [inhibitor, single point] | –
26 | Cc1[nH]c2ccccc2c1/C=C(/C#N)C(=O)NC(C)C | – | inactive: 6.08% [at 102 µM]
27 | CC(=O)Nc1ccc(C(=O)COC(=O)CCc2ccccc2)c(F)c1 | inconclusive: 0.708 µM [inhibitor, single point] | –
28 | CCc1cccc(NC(=O)CN(c2ccc(C)cc2)S(=O)(=O)c2c(C)noc2C)c1 | – | inactive: -3.2% [at 102 µM]
29 | Brc1ccc(-c2nc3ncccn3c2Nc2ccc3c(c2)OCCO3)o1 | inconclusive: 28.2 µM [inhibitor, single point] | –
30 | CC(COc1ccc(/C=C/c2ccccc2)cc1)[N+](C)(C)C (configuration not stated) | active: 794 nM and active: 1.12 µM and active: 3.98 µM | –
31 | COc1cc(/C=N/Nc2cccc3cccnc23)cc(OC)c1O | active: 10 µM | –
32 | O=C(Nc1ccncc1)C1CCN(S(=O)(=O)c2ccc(Cl)c(C(F)(F)F)c2)CC1 | inconclusive: 17.8 µM [inhibitor, single point] | –
33 | O=C1CN(C(=O)CNCc2ccccc2Cl)c2ccccc2N1 | active: 22.4 µM | –
34 | COc1ccccc1C(=O)OC(C)CN1CCN(C)CC1 (configuration not stated) | inconclusive: 89.1 µM [inhibitor, single point] | –
35 | Cc1nc(-c2ccccc2)sc1CCNS(=O)(=O)c1ccccc1 | – | inactive: 8.13%
36 | c1ccc(C[n+]2csc3ccccc32)cc1 | inconclusive: 28.2 µM [inhibitor, partial curve, poor fit] | –
37 | COc1cc(/C=C2\SC(=O)N(CCNC(=O)c3cnc(C)cn3)C2=O)cc(OC)c1OC | inconclusive: 89.1 µM [inhibitor, single point] | –
38 | CCn1c(-c2ccccc2)c(C(=O)CCl)c2ccccc21 | inconclusive: 3.55 µM [inhibitor, partial curve, poor fit] | –
39 | C=CCN=C1NN=C(c2cc(C)n(CCOC)c2C)CS1 | – | inactive: -4.53%
40 | Cc1cc(CN2CCCCC2)oc1C(=O)O | inconclusive: 25.1 µM [inhibitor, partial curve, poor fit] | –
41 | CN1CCc2c(sc3nc(NN)n(Cc4ccccc4)c(=O)c23)C1 | active: 44.7 µM | –
42 | COc1ccc(-c2cc(C(=O)N3CCN(c4ccccn4)CC3)c3ccccc3n2)cc1 | inconclusive: 50.1 µM [inhibitor, partial curve] | –
43 | COc1cc2cc3c4cc(OC)c(OC)cc4cc[n+]3c(C)c2cc1OC | – | inconclusive: -60.5% [inhibitor] [at 2.33 µM]
44 | CCCc1[nH][nH]c(=O)c1C(c1ccccc1)C(C#N)C#N (configuration not stated) | – | inconclusive: -79.7% [inhibitor]
45 | S=C(NCCN1CCOCC1)N/N=C/c1ccccc1 | inconclusive: 28.2 µM [inhibitor, single point] | –
46 | COc1ccc(Cl)cc1NC(=O)CN(C)C(=O)c1ccc2c(c1)CC(c1ccccc1)OC2=O (configuration not stated) | inconclusive: 14.1 µM [inhibitor, single point] | –
47 | Cc1ccccc1Cn1c(CN2CCC(C(=O)NCCN(C)C)CC2)cc2ccccc21 | inconclusive: 22.4 µM [inhibitor, partial curve, poor fit] | –
48 | Cc1cccc(N2CCN(C(=O)CCNS(=O)(=O)c3cccs3)CC2C)c1 (configuration not stated) | inconclusive: 89.1 µM [inhibitor, single point] | –

Row | SMILES | Potency | activity, negative = inhibition
49 | CCn1c(SC)nc2cc(S(=O)(=O)N3CCCCC3)ccc21 | inconclusive: 14.1 µM [inhibitor, partial curve, poor fit] | –
50 | Cc1cccc2nc3c(nc12)-c1ccccc1C3=O | – | inconclusive: -58% [inhibitor]
51 | COc1cccc(CN2CCN(Cc3cc(OC)c(OC)c(OC)c3)CC2)c1OC | active: 2.82 µM | –
52 | COc1ccc(C2NC(=O)c3ccccc3O2)cc1 (configuration not stated) | – | inactive: 10.8% [at 102 µM]
53 | O=C(COC(=O)Cn1cnc2ccccc2c1=O)Nc1ccc(Cl)cc1 | inconclusive: 70.8 µM [inhibitor, single point] | –
54 | COc1ccc(NC(=O)CC2(CC(=O)O)CCCC2)cc1 | inconclusive: 89.1 µM [inhibitor, single point] | –
55 | COc1ccccc1NC(=O)N1CCC(c2nc3cc(C)c(C)cc3[nH]2)CC1 | inconclusive: 22.4 µM [inhibitor, single point] | –
56 | CN1CCN(c2cc3c(c4c2[nH]c2ccccc24)C(=O)CC(C)(C)C3)CC1 | active: 56.2 µM | –
57 | C=CCN1C(=O)/C(=C\c2cccc(OC(=O)c3ccco3)c2)SC1=S | active: 79.4 µM | –
58 | O=c1cc(CN2CCN(S(=O)(=O)c3ccccc3)CC2)nc2sccn12 | – | inactive: -9.56%
59 | COc1ccc(Cc2nnc(NCCO)[nH]c2=O)cc1OC | – | inactive: -0.144% [at 102 µM]
60 | Cc1nc2cc(NC(=O)N(C)c3ccc4ccccc4c3)ccc2o1 | inconclusive: 6.31 µM [inhibitor, partial curve, poor fit] | –
61 | O=C(Nc1cccc(C(F)(F)F)c1)Nc1ccc(N2CCCC2)c(S(=O)(=O)Nc2ccccc2Cl)c1 | inconclusive: 39.8 µM [inhibitor, single point] | –
62 | CCN(CCCNC(=O)CN1C(=O)COc2ccccc21)c1ccccc1 | inconclusive: 2.82 µM [inhibitor, partial curve, poor fit] | –
63 | CCN(C(=O)CSc1cc(-c2ccccc2)c2ccc(OC)cc2n1)C1CCS(=O)(=O)C1 (configuration not stated) | inconclusive: 39.8 µM [inhibitor, full curve] | –
64 | CC1Cc2nc(SCC(=O)N3CCc4ccccc43)n(C)c(=O)c2S1 (configuration not stated) | inconclusive: 89.1 µM [inhibitor, single point] | –
65 | O=C(c1cccc(S(=O)(=O)N2CCc3ccccc32)c1)N1CCN(c2ccccc2)CC1 | active: 22.4 µM | –
66 | CCCn1c(NC(=O)CCS(=O)(=O)c2ccc(C)cc2)nc2ccccc21 | inconclusive: 31.6 µM [inhibitor, single point] | –
67 | CCOC(=O)C1CCN(S(=O)(=O)c2cc(Br)cc3c2N(C(=O)CC)CC3)CC1 | – | inactive: 9.07%
68 | COc1cccc(CNC(=O)[C@H](C)NC(=O)C2CCN(S(=O)(=O)c3ccccc3)CC2)c1 | – | inactive: -4.61% [at 102 µM]
69 | Nc1nc(-c2ccc(C(=O)O)cc2)cs1 | inconclusive: 39.8 µM [inhibitor, partial curve, poor fit] | –
70 | O=C(NC(=S)Nc1cccnc1)c1cccs1 | inconclusive: 79.4 µM [inhibitor, single point] | –
71 | COCC(=O)Nc1cc(Cl)c(OC)cc1OC | inconclusive: 39.8 µM [inhibitor, single point] | –
72 | CCOC(=O)CN(C(=O)CSc1nnc(-c2ccc(OC)c(OC)c2)o1)c1ccccc1 | – | inactive: 13.3% [at 102 µM]
